From the supplement of paper PMC12217912
The list shows a part of the results. Sequences were assembled here from the parent chain. Inactive controls read about 0.05.

B1: TEV protease; numbered along this chain (parent)
chain: MGESLFKGPRDYNPISSSICHLTNESDGHTTSLYGIGFGPFIITNKHLFRRNNGTLVVQSLHGVFKVKDTTTLQQHLVDGRDMIIIRMPKDFPPFPQKLKFREPQREERICLVTTNFQTKSMSSMVSDTSCTFPSGDGIFWKHWIQTKDGQCGSPLVSTRDGFIVGIHSASNFTNTNNYFTSVPKNFMELLTNQEAQQWVSGWRLNADSVLWGGHKVFMVKPEEPFQPVKEATQL

Variants of: B1
Experiment: raw area under fraction-flipped curve 0-4 h after induction (AUC4h, not background-subtracted), DNA-recorder readout of cleavage of the substrate (dimensionless); higher = more cleavage of the substrate by the protease variant
Conditions: temperature: 34 °C; time window: 0-4 h after rhamnose induction
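Further: Bxb1 expression induced with 0.2% (w/v) L-rhamnose at OD600 near 0.5, cultures sampled hourly, flipped fraction per protease–substrate barcode pair counted by paired-end Illumina sequencing.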

Variant | area with substrate ENLDFQS | area with substrate ENLEFQS | area with substrate ENLFFQS | area with substrate ENLHFQS | area with substrate ENLKFQS | area with substrate ENLMFQS | area with substrate ENLPFQS | area with substrate ENLRFQS | area with substrate ENLSFQS | area with substrate ENLNFQS
MGESLFKGPRDYNPISSSICHLTNESDGHTTSLYGIGFGPFIITNKHLFRRNNGTLVVQSLHGVFKVKDTTTLQQHLVDGRDMIIIRMPKDFPPFPQKLKFREPQREERICLVTTNFQTKSMSSMVSDTSCTFPSGDGIFWKHWIQTKDGQCGSPLVSTRDGFIVGIHSASNFTNTNNYFTSVPKNFMELLTNQEAQQWVSGWRLMADSVLWGGHKVFMVKPEEPFQPVKEATQL [N206M] | 0.0716 | 0.0708 | 0.084 | 0.0906 | 0.0782 | 0.0411 | 0.0659 | 0.0504 | 0.0598 | –
MGESLFKGPRDYNPISSSICHLTNESDGHTTSLYGIGFGPFIITNKHLFRRNNGTLVVQSLHGVFKVKDTTTLQQHLVDGRDMIIIRMPKDFPPFPQKLKFREPQREERICLVTTNFQTKSMSSMVSDTSCTFPSGDGIFWKHWIQTKDGQCGSPLVSTRDGFIVGIHSASNFTNTNNYFTSVPKNFMELLTNQQAQQWVSGWRLNADSVLWGGHKVFMVKPEEPFQPVKEATQL [E195Q] | 0.0442 | 0.064 | – | 0.0652 | 0.0829 | – | – | 0.0699 | – | 0.0653
MGESLFKGPRDYNPISSSICHLTNESDGHTTSLYGIGFGPFIITNKHLFRRNNGTLVVQSLHGVFKVKDTTTLQQHLVDGRDMIIIRMPKDFPPFPQKLKFREPQREERICLVTTNFQTKSMSSMVSDTSCTFPSGDGIFWKHWIQTKDGQCGSPLVSTRDGFIVGIHSASNFTNTNNYFTSVPKNFMELLTNQEAQQKVSGWRLNADSVLWGGHKVFMVKPEEPFQPVKEATQL [W199K] | 0.0594 | 0.0636 | 0.0735 | – | – | 0.0597 | – | 0.0515 | 0.0526 | 0.0668
MGESLFKGPRDYNPISSSICHLTNESDGHTTSLYGIGFGPFIITNKHLFRRNNGTLVVQSLHGVFKVKDTTTLQQHLVDGRDMIIIRMPKDFPPFPQKLKFREPQREERICLVTTNFQTKSMSSMVSDTSCTFPSGDGIFWKHWIQTKDGQCGSPLVSTRDGFIVGIHSASNFTNTNNYFTSVPKNFMELLTNQECQQWVSGWRLNADSVLWGGHKVFMVKPEEPFQPVKEATQL [A196C] | 0.0613 | – | – | 0.0643 | – | – | – | 0.0713 | – | –
MGESLFKGPRDYNPISSSICHLTNESDGHTTSLYGIGFGPFIITNKHLFRRNNGTLVVQSLHGVFKVKDTTTLQQHLVDGRDMIIIRMPKDFPPFPQKLKFREPQREERICLVTTNFQTKSMSSMVSDTSCTFPSGDGIFWKHWIQTKDGQCGSPLVSTRDGFIVGIHSASNFTNTNNYFTSVPKNFMELLTNQEAQQWVSGTRLNADSVLWGGHKVFMVKPEEPFQPVKEATQL [W203T] | 0.0667 | 0.0647 | 0.0652 | – | 0.0523 | – | 0.0671 | 0.0655 | 0.0483 | 0.0665
MGESLFKGPRDYNPISSSICHLTNESDGHTTSLYGIGFGPFIITNKHLFRRNNGTLVVQSLHGVFKVKDTTTLQQHLVDGRDMIIIRMPKDFPPFPQKLKFREPQREERICLVTTNFQTKSMSSMVSDTSCTFPSGDGIFWKHWIQTKDGQCGSPLVSTRDGFIVGIHSASNFTNTNNYFTSVPKNFMELLTNQEAQQWVSGWRCNADSVLWGGHKVFMVKPEEPFQPVKEATQL [L205C] | 0.0665 | 0.0691 | – | 0.0622 | – | – | 0.0718 | – | – | –
MGESLFKGPRDYNPISSSICHLTNESDGHTTSLYGIGFGPFIITNKHLFRRNNGTLVVQSLHGVFKVKDTTTLQQHLVDGRDMIIIRMPKDFPPFPQKLKFREPQREERICLVTTNFQTKSMSSMVSDTSCTFPSGDGIFWKHWIQTKDGQCGSPLVSTRDGFIVGIHSASNFTNTNNYFTSVPKNFMELLTNQEAQQWVSGWRQNADSVLWGGHKVFMVKPEEPFQPVKEATQL [L205Q] | 0.0676 | – | – | – | – | – | – | – | – | –
MGESLFKGPRDYNPISSSICHLTNESDGHTTSLYGIGFGPFIITNKHLFRRNNGTLVVQSLHGVFKVKDTTTLQQHLVDGRDMIIIRMPKDFPPFPQKLKFREPQREERICLVTTNFQTKSMSSMVSDTSCTFPSGDGIFWKHWIQTKDGQCGSPLVSTRDGFIVGIHSASNFTNTNNYFTSVPKNFMQLLTNQEAQQWVSGWRLNADSVLWGGHKVFMVKPEEPFQPVKEATQL [E189Q] | 0.062 | 0.0597 | – | 0.0749 | – | 0.0837 | 0.0652 | 0.0886 | – | –
MGESLFKGPRDYNPISSSICHLTNESDGHTTSLYGIGFGPFIITNKHLFRRNNGTLVVQSLHGVFKVKDTTTLQQHLVDGRDMIIIRMPKDFPPFPQKLKFREPQREERICLVTTNFQTKSMSSMVSDTSCTFPSGDGIFWKHWIQTKDGQCGSPLVSTRDGFIVGIHSASNFTNTNNYFTSVPKNFMEKLTNQEAQQWVSGWRLNADSVLWGGHKVFMVKPEEPFQPVKEATQL [L190K] | 0.0857 | 0.0718 | 0.0754 | – | 0.075 | 0.0808 | 0.0326 | 0.0757 | – | 0.0654
MGESLFKGPRDYNPISSSICHLTNESDGHTTSLYGIGFGPFIITNKHLFRRNNGTLVVQSLHGVFKVKDTTTLQQHLVDGRDMIIIRMPKDFPPFPQKLKFREPQREERICLVTTNFQTKSMSSMVSDTSCTFPSGDGIFWKHWIQTKDGQCGSPLVSTRDGFIVGIHSASNFTNTNNYFTSVPKNSMELLTNQEAQQWVSGWRLNADSVLWGGHKVFMVKPEEPFQPVKEATQL [F187S] | 0.056 | 0.0523 | 0.0498 | 0.0466 | 0.067 | 0.0632 | – | 0.0679 | – | –
MGESLFKGPRDYNPISSSICHLTNESDGHTTSLYGIGFGPFIITNKHLFRRNNGTLVVQSLHGVFKVKDTTTLQQHLVDGRDMIIIRMPKDFPPFPQKLKFREPQREERICLVTTNFQTKSMSSMVSDTSCTFPSGDGIFWKHWIQTKDGQCGSPLVSTRDGFIVGIHSASNFTNTNNYFTSVPKNFMELLTNDEAQQWVSGWRLNADSVLWGGHKVFMVKPEEPFQPVKEATQL [Q194D] | 0.0683 | – | 0.0772 | – | – | 0.0389 | 0.0431 | 0.0911 | 0.0575 | –

Same assay, conditions: temperature: 34 °C; time window: 0-4 h after rhamnose induction

Variant | area with substrate ENLQFQS | area with substrate ENLLFQS | area with substrate ENLGFQS | area with substrate ENLIFQS | area with substrate ENLVFQS | area with substrate ENLWFQS
MGESLFKGPRDYNPISSSICHLTNESDGHTTSLYGIGFGPFIITNKHLFRRNNGTLVVQSLHGVFKVKDTTTLQQHLVDGRDMIIIRMPKDFPPFPQKLKFREPQREERICLVTTNFQTKSMSSMVSDTSCTFPSGDGIFWKHWIQTKDGQCGSPLVSTRDGFIVGIHSASNFTNTNNYFTSVPKNFMELLTNQQAQQWVSGWRLNADSVLWGGHKVFMVKPEEPFQPVKEATQL [E195Q] | 0.112 | – | – | – | – | –
MGESLFKGPRDYNPISSSICHLTNESDGHTTSLYGIGFGPFIITNKHLFRRNNGTLVVQSLHGVFKVKDTTTLQQHLVDGRDMIIIRMPKDFPPFPQKLKFREPQREERICLVTTNFQTKSMSSMVSDTSCTFPSGDGIFWKHWIQTKDGQCGSPLVSTRDGFIVGIHSASNFTNTNNYFTSVPKNFMELLTNQEAQQKVSGWRLNADSVLWGGHKVFMVKPEEPFQPVKEATQL [W199K] | – | 0.0639 | – | – | – | –
MGESLFKGPRDYNPISSSICHLTNESDGHTTSLYGIGFGPFIITNKHLFRRNNGTLVVQSLHGVFKVKDTTTLQQHLVDGRDMIIIRMPKDFPPFPQKLKFREPQREERICLVTTNFQTKSMSSMVSDTSCTFPSGDGIFWKHWIQTKDGQCGSPLVSTRDGFIVGIHSASNFTNTNNYFTSVPKNFMELLTNQEAQQWVSGTRLNADSVLWGGHKVFMVKPEEPFQPVKEATQL [W203T] | – | 0.0565 | 0.0713 | – | – | –
MGESLFKGPRDYNPISSSICHLTNESDGHTTSLYGIGFGPFIITNKHLFRRNNGTLVVQSLHGVFKVKDTTTLQQHLVDGRDMIIIRMPKDFPPFPQKLKFREPQREERICLVTTNFQTKSMSSMVSDTSCTFPSGDGIFWKHWIQTKDGQCGSPLVSTRDGFIVGIHSASNFTNTNNYFTSVPKNFMELLTNQEAQQWVSGWRCNADSVLWGGHKVFMVKPEEPFQPVKEATQL [L205C] | – | – | – | 0.0672 | 0.0971 | 0.0638
MGESLFKGPRDYNPISSSICHLTNESDGHTTSLYGIGFGPFIITNKHLFRRNNGTLVVQSLHGVFKVKDTTTLQQHLVDGRDMIIIRMPKDFPPFPQKLKFREPQREERICLVTTNFQTKSMSSMVSDTSCTFPSGDGIFWKHWIQTKDGQCGSPLVSTRDGFIVGIHSASNFTNTNNYFTSVPKNFMQLLTNQEAQQWVSGWRLNADSVLWGGHKVFMVKPEEPFQPVKEATQL [E189Q] | 0.0809 | – | 0.0717 | – | – | –
MGESLFKGPRDYNPISSSICHLTNESDGHTTSLYGIGFGPFIITNKHLFRRNNGTLVVQSLHGVFKVKDTTTLQQHLVDGRDMIIIRMPKDFPPFPQKLKFREPQREERICLVTTNFQTKSMSSMVSDTSCTFPSGDGIFWKHWIQTKDGQCGSPLVSTRDGFIVGIHSASNFTNTNNYFTSVPKNFMEKLTNQEAQQWVSGWRLNADSVLWGGHKVFMVKPEEPFQPVKEATQL [L190K] | 0.0436 | 0.061 | 0.0626 | 0.0689 | 0.0749 | 0.0515
MGESLFKGPRDYNPISSSICHLTNESDGHTTSLYGIGFGPFIITNKHLFRRNNGTLVVQSLHGVFKVKDTTTLQQHLVDGRDMIIIRMPKDFPPFPQKLKFREPQREERICLVTTNFQTKSMSSMVSDTSCTFPSGDGIFWKHWIQTKDGQCGSPLVSTRDGFIVGIHSASNFTNTNNYFTSVPKNSMELLTNQEAQQWVSGWRLNADSVLWGGHKVFMVKPEEPFQPVKEATQL [F187S] | 0.0644 | – | – | 0.0742 | 0.0502 | 0.0515
MGESLFKGPRDYNPISSSICHLTNESDGHTTSLYGIGFGPFIITNKHLFRRNNGTLVVQSLHGVFKVKDTTTLQQHLVDGRDMIIIRMPKDFPPFPQKLKFREPQREERICLVTTNFQTKSMSSMVSDTSCTFPSGDGIFWKHWIQTKDGQCGSPLVSTRDGFIVGIHSASNFTNTNNYFTSVPKNFMELLTNDEAQQWVSGWRLNADSVLWGGHKVFMVKPEEPFQPVKEATQL [Q194D] | 0.0801 | – | – | 0.116 | 0.0733 | –
